This passage reports viability index results from the supplement of paper PMC4723716.

± gives the uncertainty stated by the source. Whole data set: some 9,900 compounds, median “viability index relative to DMSO control” near 1, cut for the lowest 2% near 0.85. The list shows a part of the results.

This experiment has as its system Plasmodium falciparum NF54 stage V gametocytes. The experiment can be described thus: viability index relative to DMSO control (fraction); higher = less gametocyte killing. The conditions noted are these: 2.5 µM, incubation time: 72 h. In outline: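 Stage V gametocytes of P. falciparum NF54 were held in serum-free screening medium at 0.75% gametocytemia and 1.25% hematocrit, 10 µl per well of a 1,536-well plate, and exposed to compound at 2.5 µM for 72 hr at 37°C under low oxygen. A 3 µl mix of 2.5 µM MitoTracker Red CMXRos with 0.13% saponin was then added for one to two hours, after which one field per well was imaged and red particles of 20–70 µm2 were counted. The viability index equals this count divided by the plate mean from wells given solvent alone.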

The mark [1] stands for this setting: library set: Broad Institute DOS.

The molecule `O=C(Nc1ccc2c(c1)[C@@H]1C[C@H](CC(=O)N3CCc4ccccc4C3)O[C@@H](CO)[C@@H]1O2)c1ccc2c(c1)OCO2` showed a viability index under setting [1] of 0.991 ± 0.038.
Under setting [1], `C[C@H](NC(=O)C[C@H]1C=C[C@@H](NS(=O)(=O)c2cccc(F)c2)[C@H](CO)O1)c1ccccc1` came in with a viability index of 1.12 ± 0.15.
Under setting [1], `O=C(Nc1cc(F)ccc1F)N1CCCCN2[C@H](C1)[C@H](c1ccc(C3=CCCCC3)cc1)[C@@H]2CO` registered a viability index of 1.04 ± 0.075.
On the same count and under the same terms, the figure for `O=C1CNC[C@@H]2[C@H](c3ccc(C#Cc4cccnc4)cc3)[C@H](CO)N12` is 0.992 ± 0.022.
With `CCNC(=O)[C@@H]1[C@@H](CO)[C@@H]2Cn3c(ccc(-c4cccc(F)c4)c3=O)[C@@H]2N1C(=O)Cc1cccnc1`, the viability index under setting [1] came to 1.093 ± 0.0084.
Turning to `O=C(C1CCOCC1)N1C[C@H]2[C@@H](c3ccccc31)[C@H](CO)N2C(=O)Nc1ccccc1F`, the viability index under setting [1] worked out at 1.048 ± 0.0035.
The same measure, in the same setting: the figure for `C/C=C/c1cnc2c(c1)C(=O)N([C@H](C)CO)C[C@H](C)[C@@H](CN(C)CC1CCOCC1)O2` is 1 ± 0.044; for `CO[C@@H]1CN(C)C(=O)c2cc(NS(C)(=O)=O)ccc2OC[C@@H](C)N(C(=O)C2CCOCC2)C[C@@H]1C` it is 1.17 ± 0.07.
On the same count and under the same terms, the figure for `COc1ccc2c3c([C@H](CO)NC[C@]33CCN(CC3)C(=O)Nc3ccc(F)cc3F)n(C)c2c1` is 0.9976 ± 0.0076; for `O=C(Nc1cc(F)ccc1F)N1CCCCN2[C@H](CO)[C@H](c3ccc(C4=CCCCC4)cc3)[C@@H]2C1` it is 0.935 ± 0.14; for `Cc1noc(C)c1NC(=O)Nc1ccc2c(c1)C(=O)N(C)[C@H]1CC[C@H](CC(=O)N[C@@H]3CCN(Cc4ccccc4)C3)O[C@H]1CO2` it is 1.11 ± 0.069.
The same measure, in the same setting: the same measure for `O=C(CC1CC1)NC[C@H]1N[C@H](CO)[C@@H]1c1ccc(-c2ccc(F)cc2)cc1`: 1.02 ± 0.044; for `C/C=C/c1ccccc1[C@H]1[C@@H](C#N)N(C(C)=O)[C@@H]1CO`: 1.1 ± 0.19.
Under “library set: Broad Institute Blood Stage”, `COc1ccccc1C#Cc1ccc([C@H]2[C@@H](CO)N(C(=O)C3CC3)[C@H]2C#N)cc1` displayed a viability index of 0.849 ± 0.047.
`C[C@@H]1CN([C@@H](C)CO)C(=O)c2cc(NC(=O)NC3CCCCC3)ccc2O[C@@H]1CN(C)S(C)(=O)=O` had a viability index under setting [1] of 0.93 ± 0.026.
Take `C[C@H]1CN([C@@H](C)CO)C(=O)Cc2cc(NS(=O)(=O)c3ccc(F)cc3)ccc2O[C@@H]1CN(C)Cc1ccncc1`: the viability index under setting [1] turned out to be 0.991 ± 0.029.
Still for that read-out and setting: the same measure for `COc1ccc(NC(=O)N(C)C[C@H]2OCCCC[C@@H](C)Oc3ccc(NC(=O)c4ccncc4)cc3C(=O)N([C@H](C)CO)C[C@@H]2C)cc1`: 1.1 ± 0.045; for `O=C(Nc1ccccc1)N1CC(=O)N2[C@@H](CO)[C@H](c3ccc(C#CC4CCCCC4)cc3)[C@@H]2C1`: 1.03 ± 0.035.
Under setting [1], `COc1ccc(NC(=O)N[C@@H]2CC[C@@H](CCNC(=O)CN3CCOCC3)O[C@@H]2CO)cc1` registered a viability index of 1.06 ± 0.064.
`COCC(=O)N1[C@H](C#N)[C@@H](c2ccc(C#Cc3ccccc3F)cc2)[C@H]1CO`: under setting [1], the viability index was 1.04 ± 0.053.
With `Cc1ccccc1-c1ccc([C@@H]2[C@@H]3CN(C(=O)c4ccc(F)cc4)C[C@H]2N3)cc1`, the viability index under setting [1] worked out at 0.938 ± 0.019.
As to `C[C@H](CO)N1C[C@H](C)[C@H](CN(C)S(=O)(=O)c2ccc(Oc3ccccc3)nc2)OCc2cnnn2CCCC1=O`, under setting [1], the viability index was 1.03 ± 0.022.
Take `CCC(=O)N1Cc2cc(C(=O)NCCOC)nc(-c3cccc(-c4ccc(C#N)cc4)c3)c2[C@H]1CCO`: under setting [1], the viability index came to 1.08 ± 0.077.
As for `C[C@@H]1CN([C@H](C)CO)C(=O)c2cccc(NC(=O)Nc3ccc4c(c3)OCO4)c2O[C@H]1CN(C)S(C)(=O)=O`, the viability index under setting [1] came to 0.954 ± 0.09.
Under setting [1], `N#C[C@H]1[C@@H](c2ccccc2-c2ccccc2)[C@@H](CO)N1C(=O)Cc1ccncc1` yielded a viability index of 1.1 ± 0.17.
`O=C(c1ccccn1)N1CC[C@@H]2[C@H]1c1cc(C#Cc3cccnc3)ccc1N[C@@H]2CO` yielded a viability index under setting [1] of 1.03 ± 0.021.
On the same count and under the same terms, the same measure for `C[C@H]1CCCCO[C@H](CN(C)S(=O)(=O)c2ccccc2)[C@@H](C)CN([C@@H](C)CO)C(=O)c2cc(NC(=O)Nc3ccc4c(c3)OCO4)ccc2O1`: 0.891 ± 0.028.
Still for that read-out and setting: the figure for `O=C(Cc1ccncc1)N1CC[C@@H]2[C@H]1c1cc(-c3ccccc3F)ccc1N[C@@H]2CO` is 1.03 ± 0.046; for `O=C(Nc1ccc2c(c1)[C@H]1C[C@@H](CC(=O)N3CCc4ccccc4C3)O[C@@H](CO)[C@H]1O2)c1ccc2c(c1)OCO2` it is 1.08 ± 0.12.
Still for that read-out and setting: the same measure for `CCCC#Cc1ccc([C@@H]2[C@@H](CO)N3C(=O)CN(C(=O)Nc4cccc(F)c4)C[C@H]23)cc1`: 1.056 ± 0.003; for `CC(C)NC(=O)N(C)C[C@H]1Oc2c(NS(=O)(=O)c3cccs3)cccc2C(=O)N([C@H](C)CO)C[C@@H]1C`: 1.03 ± 0.12.
For `CCCNC[C@H]1[C@@H](c2ccc(-c3cccc(C#N)c3)cc2)[C@@H](CO)N1C(C)=O`, the viability index under setting [1] amounted to 0.997 ± 0.1.
With `CNC[C@@H]1OCCCC[C@@H](C)Oc2ccc(NS(=O)(=O)c3ccc(F)cc3)cc2C(=O)N([C@H](C)CO)C[C@H]1C`, the viability index under setting [1] is 1.021 ± 0.0045.
For `COc1ccccc1NC(=O)N1[C@H](C#N)[C@@H](c2ccccc2)[C@@H]1CO`, the viability index under setting [1] was found to be 1.07 ± 0.021.
`O=C(Nc1ccc(C(F)(F)F)cc1)Nc1ccc2c(c1)[C@@H]1C[C@@H](CC(=O)N3CCc4ccccc4C3)O[C@H](CO)[C@@H]1O2` showed a viability index under setting [1] of 0.881 ± 0.037.
`O=C(NC[C@H]1[C@@H](c2ccccc2)[C@H](CO)N1C(=O)Cc1ccncc1)C1CCC1` yielded a viability index under setting [1] of 0.951 ± 0.055.
As for `CNC(=O)C[C@H]1CC[C@@H]2[C@H](COC[C@@H](O)CN2Cc2ccccc2F)O1`, the viability index under setting [1] came out at 1.07 ± 0.021.
Molecule `Cc1noc(C)c1S(=O)(=O)N(C)C[C@@H]1OCCCC[C@@H](C)Oc2ccc(NC(=O)CCC(F)(F)F)cc2C(=O)N([C@@H](C)CO)C[C@H]1C` showed a viability index under setting [1] of 1.03 ± 0.085.
In the case of `CC(=O)N1CC2(C1)[C@H](c1ccc(-c3cccc(C#N)c3)cc1)[C@@H](CO)N2CCC(F)(F)F`, the viability index under setting [1] came out at 1.1 ± 0.046.
Still for that read-out and setting: the same measure for `CO[C@H]1CN(C)C(=O)c2ccc(NC(=O)Nc3ccccc3Cl)cc2OC[C@H](C)NC[C@H]1C`: 0.9328 ± 0.0039; for `Cc1noc(C)c1NC(=O)N(C)C[C@@H]1Oc2cc(C#CCN(C)C)ccc2S(=O)(=O)N([C@H](C)CO)C[C@@H]1C`: 1.06 ± 0.048.
Consider `COc1cccc(C(=O)Nc2ccc3c(c2)C(=O)N(C)[C@H]2CC[C@@H](CC(=O)N[C@H](C)c4ccccc4)O[C@@H]2CO3)c1`, for which, under setting [1], the viability index was 1.15 ± 0.093.
Same read-out and setting: the same measure for `CCS(=O)(=O)Nc1ccc2c(c1)C(=O)N(C)C[C@H](OC)[C@@H](C)CN(CC1CCCCC1)[C@@H](C)CO2`: 0.952 ± 0.036; for `C/C=C/c1ccc2n(c1=O)C[C@@H]1[C@@H](CO)[C@H](C(=O)N[C@@H](C)c3ccccc3)[C@H]2N1Cc1cncnc1.C/C=C\c1ccc2n(c1=O)C[C@@H]1[C@@H](CO)[C@H](C(=O)N[C@@H](C)c3ccccc3)[C@H]2N1Cc1cncnc1`: 1.06 ± 0.037; for `O=C(C[C@H]1CC[C@@H]2[C@H](COC[C@@H](O)CN2CCc2ccccc2)O1)NCCCN1CCOCC1`: 1.07 ± 0.054.
With `CNC[C@H]1Oc2c(N)cccc2C(=O)N([C@@H](C)CO)C[C@@H]1C`, under setting [1], the viability index came out at 0.962 ± 0.015.
On to `C[C@H](NC(=O)[C@@H]1[C@@H](CO)[C@@H]2Cn3c(cccc3=O)[C@@H]2N1CCC(F)(F)F)c1ccccc1`, for which the viability index under setting [1] is 1.02 ± 0.056.
Turning to `CO[C@@H]1CN(C)C(=O)c2ccc(NC(=O)NC3CCCCC3)cc2OC[C@@H](C)N(CCc2ccccc2)C[C@H]1C`, the viability index under setting [1] came out at 0.984 ± 0.083.
Under setting [1], `CN1C(=O)c2cc(NC(=O)C3CCOCC3)ccc2OC[C@H]2O[C@@H](CC(=O)NCc3ccccc3F)CC[C@@H]21` returned a viability index of 1.05 ± 0.062.
Still for that read-out and setting: the figure for `C[C@H]1CCCCO[C@@H](CN(C)C(=O)Nc2ccc3c(c2)OCO3)[C@@H](C)CN([C@@H](C)CO)C(=O)c2cc(NS(=O)(=O)c3ccc(F)cc3)ccc2O1` is 0.98 ± 0.064; for `O=C(O)C[C@H]1C[C@@H]2c3cc(NC(=O)Nc4ccc(C(F)(F)F)cc4)ccc3O[C@@H]2[C@H](CO)O1` it is 1.07 ± 0.011; for `C[C@@H]1CCCCO[C@H](CN(C)S(=O)(=O)c2cn(C)cn2)[C@H](C)CN([C@@H](C)CO)C(=O)c2cc(N(C)C)ccc2O1` it is 1.08 ± 0.024.
Still for that read-out and setting: the figure for `C[C@@H]1CN([C@H](C)CO)S(=O)(=O)c2ccc(-c3cncnc3)cc2O[C@@H]1CN(C)C(=O)NC1CCCC1` is 1.07 ± 0.054; for `COc1ccccc1C#Cc1ccc([C@@H]2[C@@H](CO)N(C(=O)C3CCC3)[C@H]2C#N)cc1` it is 1.06 ± 0.047.
Turning to `O=C(C[C@H]1CC[C@H]2NC[C@@H](O)COC[C@@H]2O1)NC1Cc2ccccc2C1`, the viability index under setting [1] was found to be 1.01 ± 0.084.
`CCCNC(=O)N1CC2(C1)[C@@H](c1ccccc1)[C@H](CO)N2CC1CCOCC1`: under setting [1], the viability index is 1.0932 ± 0.001.
As to `O=C(CN1CCOCC1)N1CC(=O)N2[C@H](C1)[C@@H](c1ccc(-c3cccc(F)c3)cc1)[C@@H]2CO`, the viability index under setting [1] is 0.984 ± 0.086.
Under setting [1], `O=C1C[C@@H](c2ccccc2)C(=O)N[C@H](c2ccccc2)C/C=C\C[C@@H](c2ccccc2)N1` registered a viability index of 1.13 ± 0.049.
For `C[C@H](CO)N1C[C@H](C)[C@@H](CN(C)CC2CC2)OCCCC[C@H](C)Oc2ccc(NC(=O)c3ccccc3)cc2C1=O`, the viability index under setting [1] came out at 1.07 ± 0.02.
`C[C@H]1CN([C@@H](C)CO)C(=O)c2cc(NC(=O)C3CCCCC3)ccc2O[C@H]1CN(C)Cc1ccc2c(c1)OCO2` had a viability index under setting [1] of 1.04 ± 0.021.
Under setting [1], `COCC#Cc1ccc([C@H]2[C@H]3CN(C(=O)C4CCCCC4)CC(=O)N3[C@H]2CO)cc1` had a viability index of 1.01 ± 0.034.
For `C/C=C/c1ccc([C@@H]2[C@@H](CO)N[C@@H]2CN(CC)C(=O)CN2CCOCC2)cc1`, the viability index under setting [1] was 1.03 ± 0.091.
As to `C/C=C/c1ccc([C@H]2[C@H]3CNC[C@@H]2N3C(=O)Nc2ccc3c(c2)OCO3)cc1`, the viability index under setting [1] amounted to 1.05 ± 0.093.
In turn, `CN(C)C(=O)c1ccc(-c2ccc([C@H]3[C@@H](CO)N4C(=O)CN(C(=O)CC5CC5)C[C@@H]34)cc2)cc1` showed a viability index under setting [1] of 0.927 ± 0.014.
In turn, `C[C@@H]1CCCCO[C@@H](CN(C)S(=O)(=O)c2ccc(Cl)cc2)[C@@H](C)CN([C@@H](C)CO)C(=O)c2cc(NC(=O)Nc3ccc(C(F)(F)F)cc3)ccc2O1` gave a viability index under setting [1] of 1.06 ± 0.058.
Take `COc1ccccc1-c1ccccc1[C@H]1[C@@H](C#N)N(C(=O)CN(C)C)[C@H]1CO`: under setting [1], the viability index is 1.18 ± 0.022.
Turning to `COc1ccc2c3c([C@H](CO)N(Cc4cc(F)ccc4F)C[C@]33CN(C3)C(=O)C3CC3)n(C)c2c1`, the viability index under setting [1] is 1.01 ± 0.079.
`CN1C(=O)c2cc(NC(=O)Nc3ccc(Cl)cc3)ccc2OC[C@@H]2O[C@H](CC(=O)NCCN3CCCCC3)CC[C@@H]21`: the viability index under setting [1] came to 0.945 ± 0.017.
